Here are results for 44 sequences from the supplement of paper PMC11417369.

This is one part of the list.

This assay concerns PfSIP2 AP2 domain 1 (GST-tagged). Kind of assay: gcPBM binding intensity (ln(normalized median fluorescence intensity)); higher = stronger DNA binding. The essentials: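 Plasmodium falciparum DNA-binding domains carrying a GST tag were expressed in E. coli and applied for 1 h, at about 25 μg on average, to an Agilent 4 × 180k array. The array held primer-extended double-stranded 36-bp intergenic genomic probes together with negative controls, and binding took place in 1× PBS with 1% milk, 0.2 mg/ml BSA, 0.5% salmon testes DNA and 0.03% Triton X-100. An Alexa488 anti-GST antibody detected bound protein, and the array was scanned at 488 nm. Binding intensity is taken as the highest Masliner-normalised natural-log median intensity across replicate spots of either probe orientation.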
In the case of “AAATACCTGATATATACACACTATGTTTTTCTTTTT [CACACA_site6680]”, the “gcPBM binding intensity (ln)” value is 7.

As for “TATTAAATTATATAGACACACATTATATATATATAT [CACACA_site4345]”, the “gcPBM binding intensity (ln)” value is 8.96. For “AAAAAGAAATATTTATGTACATAATAATAATATTTT [XGTACX_site4693]”, the “gcPBM binding intensity (ln)” value was found to be 6.85. Then “AATATAGATACATATACACACACACCCATACATATA [CACACA_site9137]”, with 7.3.

As for “AAGAAAAACATTACGTGTACCAAAAGGCCTGTCAAC [XGTACX_site267]”, the “gcPBM binding intensity (ln)” value turned out to be 6.99. Consider “GTAACAAATAAAATAACACACATGTCGAAATGTATG [CACACA_site2971]”, for which the “gcPBM binding intensity (ln)” value is 7. The figure for “ATAATTATATAAATATATATAATATATATATGAAAA [XGTACX_negctrl_site357]” is 6.9. In the case of “AAAATGGGTTAGCACATACACACCAATATATTATAT [CACACA_site3082]”, the “gcPBM binding intensity (ln)” value is 6.89. Consider “TATAGATGTATGTACATACACACATATATAAATAAA [CACACA_site1789]”, for which the “gcPBM binding intensity (ln)” value was found to be 7.05.

Turning to “TGTTAATTTATATTATGTACTTATAATTATCGTTTG [XGTACX_site1032]”, the “gcPBM binding intensity (ln)” value came to 7.08. Turning to “ATAATTCTAAATAAATGTACACACAAAAATAAATGT [XGTACX_site3547]”, the “gcPBM binding intensity (ln)” value came out at 7.28. On to “ATTGTATGCACGTCTGCACACTTTTTTTTTTTTTTT [CACACA_site2082]”, for which the “gcPBM binding intensity (ln)” value was determined as 8.65. As for “TAACGCATGAATATAATATATATATATATAAAAATA [GTGCAC_negctrl_site218]”, the “gcPBM binding intensity (ln)” value was 7.35. Consider “GTTAATTGAAGATTCACACATAAATATATATATAAT [CACACA_site5482]”, for which the “gcPBM binding intensity (ln)” value is 6.92.

As for “TAGATAAATGGGTATACACACATATACATAAATATA [CACACA_site375]”, the “gcPBM binding intensity (ln)” value was found to be 6.89.

In the case of “GTAAGATTTCTTGTTGCATGCGGTAAAAAGTAAAAT [TGCATGCA_site469]”, the “gcPBM binding intensity (ln)” value is 7.39. Turning to “TACACCCACCAACACACACACACACCCAAAAAAAAA [CACACA_site498]”, the “gcPBM binding intensity (ln)” value was 7.6. Then “AACTTTATACTTTTTTGTACTTAACCCTTACATTTT [XGTACX_site5798]”, with 7.32; and “AACATACATAAACACACACACACACCCACACCCACA [CACACA_site8058]”, with 7.09; and “TTTATATATTTATTCACACATATAATATTCCGTCGT [CACACA_site6120]”, with 6.88.

Consider “TTTATGAAACAGTGCACACATAAAAATATATACATA [CACACA_site2992]”, for which the “gcPBM binding intensity (ln)” value was 11. As for TAATTATAAATTATAGTGCATAAAATTGTAGCATAA, the “gcPBM binding intensity (ln)” value stood at 8.6.

For “AAAATATGATATGAAAAATTTGTTATATATACATAA [CACACA_negctrl_site1529]”, the “gcPBM binding intensity (ln)” value was 6.84.

As to “GACATTTGTGAGCTTGAGCCGTCAAACCACTAAATA [CACACA_negctrl_site552]”, the “gcPBM binding intensity (ln)” value amounted to 6.58. For the sequence “TGTATTAATATGGTAATACACACTAATATACTTTTG [CACACA_site1610]”, the “gcPBM binding intensity (ln)” value was 6.81. Take “TGTAGAATTTCCTGAACATGCAAATAATTTTCCTTA [TGCATGCA_site881]”: the “gcPBM binding intensity (ln)” value turned out to be 6.65.

Take “AAAAAATTGAAGGAGTGTACATTTATACTTTATTTT [XGTACX_site8623]”: the “gcPBM binding intensity (ln)” value was found to be 6.8.

Take “TGTTATTCGACATATACACACAAATAACAATTTAAA [CACACA_site5076]”: the “gcPBM binding intensity (ln)” value worked out at 7.1. With “AACATAATAAAAATGGATATAATTCAAAGTTTGTAA [TGCATGCA_negctrl_site529]”, the “gcPBM binding intensity (ln)” value came to 6.72. With “AGGTCTGTTTTATATTGTACATAAAAAGTGCACATG [XGTACX_site4529]”, the “gcPBM binding intensity (ln)” value is 11.4.

Take “TTCTATAAGTATAAATGTACAAAAAAAACATCATTC [XGTACX_site5450]”: the “gcPBM binding intensity (ln)” value is 7.14.

For “CATATTCCAAGAATGTGTACATAATTTTTTTTTTTT [XGTACX_site4310]”, the “gcPBM binding intensity (ln)” value was determined as 7. “CTCATAATTTCTGAACGTACGTATTTCTCATTTTTA [XGTACX_site7296]”: the “gcPBM binding intensity (ln)” value came out at 7.13.

For “ATTTTTTTTTAATGCAAAAGGTGATGATCGGTCATA [CACACA_negctrl_site959]”, the “gcPBM binding intensity (ln)” value was 6.82. Then “TTTTCTTGATTTTGTAGTACATTTTTACGATATTTT [XGTACX_site63]”, with 7.11; and “ATGTAAATTATTATTCTATTGTTATATACACAATAT [XGTACX_negctrl_site332]”, with 6.85. Take “CACATACATATATACACACACAAAATAATAAAATAA [CACACA_site2308]”: the “gcPBM binding intensity (ln)” value was 7.35. In the case of “TTTTTAAAAATAACAGAAAAGAATTACAGATTTTTT [XGTACX_negctrl_site472]”, the “gcPBM binding intensity (ln)” value is 6.8. Take “TTTTTTACATCCATAAAACTTTTTCTCTTTTAAAAT [CACACA_negctrl_site1745]”: the “gcPBM binding intensity (ln)” value is 6.79. Turning to “AGAGAGAAAGGTATAACATGCGATAAATTTTAGAAG [TGCATGCA_site37]”, the “gcPBM binding intensity (ln)” value was determined as 6.88.

Turning to “ATATAGTTCGTTTATACACACATGATAAGATATTTA [CACACA_site1947]”, the “gcPBM binding intensity (ln)” value stood at 7.16. Consider “AAATCACTTTTTAAGTGTACTTGGTCTTTCTCATTT [XGTACX_site7221]”, for which the “gcPBM binding intensity (ln)” value came to 6.81. Regarding “TTAAAAATATTATGTACACACATTTTAGATATTTGT [CACACA_site1846]”, the “gcPBM binding intensity (ln)” value amounted to 6.99.

For “TAAATATATATATATTGTACAAAACAAATGTGAATT [XGTACX_site696]”, the “gcPBM binding intensity (ln)” value came out at 7.28.
